This is one part of the list. The exact form of the protein is not confirmed.

This passage reports binding signal (log2 fold change) results from article PMC5892938.

The assay has as its target GST-SBP-ILF3 (Homo sapiens) (UniProt Q12906). In words: targeted RNA Bind-n-Seq. The conditions noted are these: RBNS binding buffer: 25 mM Tris pH 7.5, 150 mM KCl, 3 mM MgCl2, 0.1% Tween, 0.5 mg/mL BSA, 1 mM DTT; 27 nM protein, 750 pM RNA pool; temperature not stated; high values mean tight binding; sequences stand for … in GGGUAAAAGCGAGGUGAA…CGGGACAAGUAUUAUGGG
For the sequence “GGUUGGUGUGUUGGCCUCUAACACAUCGAC [gtspaired]”, the binding signal (log2 fold change) is -0.822.
For the sequence “UUUUUUUUUUGAGAGGGAGGCCCUCUCCUG [tttttgagapaired]”, the binding signal (log2 fold change) came to 0.545.
On to “UUUUUUUUUUGAGACCGCAACGGUCUUCUA [tttttgagapaired]”, for which the binding signal (log2 fold change) was found to be 0.252.
The figure for “UUUUUUUUUUGAGAGUGUAUCACUCUCCUA [tttttgagapaired]” is -0.185; for “UUUUUUUUUUGAGAGGGACCCCCUCUUCUG [tttttgagapaired]” it is 0.425.
As to “UUUUUUUUUUGAGAUCGAUCCGAUCUCCAG [tttttgagapaired]”, the binding signal (log2 fold change) turned out to be 0.242.
Regarding “UUCUUCCUUCCUCCGGGGGAGGAGGGGAGA [ctspaired]”, the binding signal (log2 fold change) was -0.363.
In the case of “GGUUGUGGUGUUGGUACCUAACACCGCAGC [gtspaired]”, the binding signal (log2 fold change) is -0.707.
Take “UUUUUUUUUUGAGACUGUGACAGUCUCCAG [tttttgagapaired]”: the binding signal (log2 fold change) was 0.406.
For “GUGUGUGGUGUUGGAGCCUAACACCACGCA [gtspaired]”, the binding signal (log2 fold change) was -0.347.
The figure for “UUUUUUUUUUGAGAGCGUACCGCUCUCCUA [tttttgagapaired]” is 0.0322.
The same measure for “GUGUGGUGUGUUGGACUCUAACACAUCGCG [gtspaired]”: -0.727; for “UUUUUUUUUUGAGAGCGACACGCUCUCCUG [tttttgagapaired]”: 0.385; for “UUUUUUUUUUGAGACGGCGUCCGUUUCCUA [tttttgagapaired]”: 0.892.
For the sequence “UUUUUUUUUUGAGACCGACACGGUUUCCAG [tttttgagapaired]”, the binding signal (log2 fold change) came out at 0.436.
The same measure for “UUUUUUUUUUGAGACCGGGUCGGUCUCCUA [tttttgagapaired]”: 0.391.
For “UUUUUUUUUUGAGAUGGUUGCCAUCUUCUA [tttttgagapaired]”, the binding signal (log2 fold change) is 0.138.
With “UUUUUUUUUUGAGAUGGGUUCCAUCUUCUA [tttttgagapaired]”, the binding signal (log2 fold change) stood at 0.112.
In the case of “UUUUUUUUUUGAGACUGUAACAGUCUCCAG [tttttgagapaired]”, the binding signal (log2 fold change) worked out at 0.32.
Take “UUUUUUUUUUGAGAGGGACCCCCUUUCCAG [tttttgagapaired]”: the binding signal (log2 fold change) is 0.354.
In the case of “UUUUUUUUUUGAGACGGCAACUGUCUCCUG [tttttgagapaired]”, the binding signal (log2 fold change) worked out at 1.07.
Turning to “UUUUUUUUUUGAGAACGGUCCGUUCUCCAG [tttttgagapaired]”, the binding signal (log2 fold change) came to 0.392.
For “UUUUUUUUUUGAGAGGGGAGCCCUCUCCUA [tttttgagapaired]”, the binding signal (log2 fold change) was 0.577.
Turning to “UUUUUUUUUUGAGACCGUCACGGUCUCCGG [tttttgagapaired]”, the binding signal (log2 fold change) was 0.399.
Take “GUGGUGUGUGUUGGUCUCUAACACAUACCA [gtspaired]”: the binding signal (log2 fold change) is -0.748.
Take “UUUUUUUUUUGAGAUGGGGGCCAUCUCCUG [tttttgagapaired]”: the binding signal (log2 fold change) amounted to 0.893.
In the case of “UUCUCUUCUCCUCCACUGGAGGGGGAGGGA [ctspaired]”, the binding signal (log2 fold change) was 0.041.
For “GGUGUGUGUGUUGGCUUCUAACACAUAUAC [gtspaired]”, the binding signal (log2 fold change) was -0.799.
Turning to “UUUUUUUUUUGAGAGGGCACCCCUCUCCUG [tttttgagapaired]”, the binding signal (log2 fold change) amounted to 0.808.
Take “UUUUUUUUUUGAGACUGGUGCAGUCUCCUG [tttttgagapaired]”: the binding signal (log2 fold change) was determined as 0.512.
Consider “UUUUUUUUUUGAGAGGGAGACCCUCUUCUA [tttttgagapaired]”, for which the binding signal (log2 fold change) came out at 0.506.
The figure for “UUUUUUUUUUGAGACUGUGGCAGUUUCCGG [tttttgagapaired]” is 0.841; for “UUUUUUUUUUGAGAUGGUCUCCAUCUUCUA [tttttgagapaired]” it is 0.131; for “GUGUGUUGUGUUGGAAUCUAACACAGCGCA [gtspaired]” it is -0.79.
In the case of “UUUUUUUUUUGAGACCGUAUCGGUCUCCUG [tttttgagapaired]”, the binding signal (log2 fold change) stood at 0.716.
Take “GGUUGUGGUGUUGGCCUCUAACACCGCAGC [gtspaired]”: the binding signal (log2 fold change) is -0.615.
Take “UUUUUUUUUUGAGACUGGGGCAGUCUCCUG [tttttgagapaired]”: the binding signal (log2 fold change) stood at 0.79.
For the sequence “GUGUGGUGUGUUGGUGUCUAACACAUCACG [gtspaired]”, the binding signal (log2 fold change) was -0.975.
Take “GUGGUUGGUGUUGGCACCUAACACCAAUCA [gtspaired]”: the binding signal (log2 fold change) was -0.575.
On to “UUUUUUUUUUGAGAUGGCGGCCAUUUCCAG [tttttgagapaired]”, for which the binding signal (log2 fold change) is 0.737.
The same measure for “UUCUCUCUUCCUCCACUGGAGGAGGAGGGA [ctspaired]”: -0.333; for “UUUUUUUUUUGAGAGGGCUGCCCUCUCCGG [tttttgagapaired]”: 1.03; for “UUUUUUUUUUGAGACGGUUUCCGUCUCCUA [tttttgagapaired]”: 0.135.
Turning to “UUUUUUUUUUGAGAGGGUAGCCCUCUCCUG [tttttgagapaired]”, the binding signal (log2 fold change) came out at 0.705.
For the sequence “GGUGGUUGUGUUGGUUCCUAACACAAUCGC [gtspaired]”, the binding signal (log2 fold change) is -0.463.
The same measure for “UUUUUUUUUUGAGACUGUAUCAGUCUUCUA [tttttgagapaired]”: 0.249; for “UUUUUUUUUUGAGACUGGAUCAGUCUCCGG [tttttgagapaired]”: 0.154.
Take “UUUUUUUUUUGAGAACGCGACGUUCUCCAG [tttttgagapaired]”: the binding signal (log2 fold change) amounted to 0.0919.
Turning to “UUUUUUUUUUGAGAGGGCUCCCCUCUCCUA [tttttgagapaired]”, the binding signal (log2 fold change) was 0.474.
As for “UUUUUUUUUUGAGAUCGAAACGGUCUUCUA [tttttgagapaired]”, the binding signal (log2 fold change) was 0.0948.
With “UUUUUUUUUUGAGAGGGCUGCCCUCUUCUA [tttttgagapaired]”, the binding signal (log2 fold change) turned out to be 0.93.
Consider “UUUUUUUUUUGAGAUGGGUACCAUCUCCAG [tttttgagapaired]”, for which the binding signal (log2 fold change) was 0.157.
On to “UUUUUUUUUUGAGAUGGCGUCCAUCUUCUA [tttttgagapaired]”, for which the binding signal (log2 fold change) was 0.648.
The figure for “UUUUUUUUUUGAGACGGAGUCCGUCUCCAG [tttttgagapaired]” is 0.339.
Regarding “GGUGUGUGUGUUGGUCUCUAACACAUACGC [gtspaired]”, the binding signal (log2 fold change) is -0.618.
The figure for “UUUUUUUUUUGAGAGGGGAGCCCUCUCCUG [tttttgagapaired]” is 0.896; for “UUUUUUUUUUGAGAGCGUCACGUUCUCCAG [tttttgagapaired]” it is 0.596; for “GUGUGGUGUGUUGGCUCCUAACACACUAUA [gtspaired]” it is -0.64.
As to “UUUUUUUUUUGAGAUGGGUGCCGUCUCCUA [tttttgagapaired]”, the binding signal (log2 fold change) was 0.788.
Turning to “UUUUUUUUUUGAGACGGUGUCUGUCUCCGG [tttttgagapaired]”, the binding signal (log2 fold change) was determined as 0.873.
The same measure for “UUUUUUUUUUGAGAGGGAAACCCUCUCCAG [tttttgagapaired]”: 0.0238; for “GUGUGGUGUGUUGGAACCUAACACAUCGCG [gtspaired]”: -0.569.
Take “UUUUUUUUUUGAGACUGUGACAGUUUUCUA [tttttgagapaired]”: the binding signal (log2 fold change) came to 0.401.
With “UUUUUUUUUUGAGACCGAAACGGUUUCCAG [tttttgagapaired]”, the binding signal (log2 fold change) turned out to be 0.347.
On to “GUGGUGUGUGUUGGCCUCUAACACACAUCA [gtspaired]”, for which the binding signal (log2 fold change) is -0.762.
Take “GGUGUGUGUGUUGGUGCCUAACACAUAUAC [gtspaired]”: the binding signal (log2 fold change) is -0.464.
“UUUUUUUUUUGAGACGGGAUCCGUUUCCUG [tttttgagapaired]”: the binding signal (log2 fold change) stood at 0.505.
In the case of “GUGUGGUGUGUUGGUGCCUAACACAUCACA [gtspaired]”, the binding signal (log2 fold change) was -0.28.
Take “GUGUUGUGUGUUGGCUCCUAACACACAGCG [gtspaired]”: the binding signal (log2 fold change) was -0.754.
The figure for “UUUUUUUUUUGAGAACGUAUCGUUCUCCAG [tttttgagapaired]” is 0.0529; for “UUUUUUUUUUGAGAACGUGACGUUCUUCUA [tttttgagapaired]” it is 0.3.
With “UUUUUUUUUUGAGACGGGAACCGUCUUCUA [tttttgagapaired]”, the binding signal (log2 fold change) amounted to 0.0219.
Take “GUGUGUUGUGUUGGCAUCUAACACAGCGCG [gtspaired]”: the binding signal (log2 fold change) was -0.716.
Consider “UUUUUUUUUUGAGAUCGAGUCGAUCUCCUG [tttttgagapaired]”, for which the binding signal (log2 fold change) amounted to 0.135.
“GUGUGGUGUGUUGGUAUCUAACACACUACG [gtspaired]”: the binding signal (log2 fold change) was -0.583.
The same measure for “GUGUGUGGUGUUGGAUUCUAACACCAUACG [gtspaired]”: -0.771; for “GGUGGUUGUGUUGGUCCCUAACACAGCUAC [gtspaired]”: -0.596; for “UUUUUUUUUUGAGACCGAAUCGGUUUCCAG [tttttgagapaired]”: 0.44.
In the case of “UUUUUUUUUUGAGAGCGGUACGUUCUCCAG [tttttgagapaired]”, the binding signal (log2 fold change) was determined as 0.343.
As to “GUGGUGUGUGUUGGCGCCUAACACACAUCG [gtspaired]”, the binding signal (log2 fold change) is -0.429.
Turning to “UUUUUUUUUUGAGACUGGCACAGUCUUCUG [tttttgagapaired]”, the binding signal (log2 fold change) was determined as 0.784.
With “GUGUGUUGUGUUGGACUCUAACACAACGCA [gtspaired]”, the binding signal (log2 fold change) was -0.14.
As for “UUUUUUUUUUGAGACCGGGUCGGUCUCCUG [tttttgagapaired]”, the binding signal (log2 fold change) came to 0.28.
“UUUUUUUUUUGAGACUGCUGCAGUCUCCUA [tttttgagapaired]”: the binding signal (log2 fold change) worked out at 0.641.
For the sequence “UUUUUUUUUUGAGAGGGCACCCCUCUCCAG [tttttgagapaired]”, the binding signal (log2 fold change) was 0.746.
The same measure for “UUUUUUUUUUGAGAUGGUGGCCAUUUCCAG [tttttgagapaired]”: 0.712.
The figure for “GUGUGGUGUGUUGGCUCCUAACACAUCACA [gtspaired]” is -0.932; for “UUUUUUUUUUGAGAAGGAAUCCUUCUCCUA [tttttgagapaired]” it is 0.0537; for “UUUUUUUUUUGAGAGGGGUGCCCUUUCCGG [tttttgagapaired]” it is 0.761.
The figure for “GUGUGUUGUGUUGGUGUCUAACACAGCGCA [gtspaired]” is -0.569.
“GUGGUUGGUGUUGGAAUCUAACACCAGCCG [gtspaired]”: the binding signal (log2 fold change) was -0.675.
Regarding “UUUUUUUUUUGAGACGGAGACCGUCUCCGG [tttttgagapaired]”, the binding signal (log2 fold change) was found to be 0.481.
On to “UUUUUUUUUUGAGAUGGAAUCCGUCUCCAG [tttttgagapaired]”, for which the binding signal (log2 fold change) was 0.0723.
Turning to “UUUUUUUUUUGAGAGUGUAACACUCUCCUA [tttttgagapaired]”, the binding signal (log2 fold change) was -0.0263.
In the case of “UUUUUUUUUUGAGACGGUGGCCGUUUCCAG [tttttgagapaired]”, the binding signal (log2 fold change) turned out to be 0.974.
Take “GUUGGUGGUGUUGGUCUCUAACACCACCGA [gtspaired]”: the binding signal (log2 fold change) is -0.426.
On to “UUUUUUUUUUGAGAUCGGUCCGAUCUCCUG [tttttgagapaired]”, for which the binding signal (log2 fold change) turned out to be 0.679.
For “GUGGUUGGUGUUGGUACCUAACACCGACCG [gtspaired]”, the binding signal (log2 fold change) was -0.397.
As to “GGUUGUUGUGUUGGCCUCUAACACAGCAAC [gtspaired]”, the binding signal (log2 fold change) is -0.611.
Turning to “GUGUUGUGUGUUGGACCCUAACACACAGCA [gtspaired]”, the binding signal (log2 fold change) is -0.212.
For “UUUUUUUUUUGAGACGGAGGCCGUCUCCAG [tttttgagapaired]”, the binding signal (log2 fold change) came out at 0.513.
The figure for “UUUUUUUUUUGAGAGUGAUGCACUCUCCUG [tttttgagapaired]” is 0.416.
